Test results as given in publication PMC11995724, “Antibiotic target discovery by integrated phenotypic and activity-based profiling of electrophilic fragments” (Cell chemical biology, 2025).
The campaign covered roughly 3,200 compounds. About 75 (2%) showed an effect of 50% or more. The list shows a part of the results.

test system: T1, S. aureus MSSA476; parameters: species or system S. aureus MSSA476 (TSB) or V. cholerae SAD30 (LB); 384-well bacterial growth screen at 25 uM, OD600 relative to DMSO control; conditions: relative growth, OD600, TSB; 25 µM; inhibitor
T1 construct: MSSA476

SMILES | % of control remaining [%]
CCOc1cc2c(cc1C=C(C#N)C(N)=O)OC(C)C2 (stereo not drawn) [9-D04, 2-cyano-3-(5-ethoxy-2-methyl-2,3-dihydro-1-benzofuran-6-yl)prop-2-enamide] | 91.985
CC(Cl)C(=O)N1CCN(Cc2ccc(C(F)(F)F)cc2)C(=O)C1 (stereo not drawn) [6-N19, 4-(2-chloropropanoyl)-1-{[4-(trifluoromethyl)phenyl]methyl}piperazin-2-one] | 107.22
N#CC(=Cc1ccc(O)cc1)C(=O)NCc1ccc(Cl)cc1 [8-B16, N-[(4-chlorophenyl)methyl]-2-cyano-3-(4-hydroxyphenyl)prop-2-enamide] | 76.0166
CC(Cl)C(=O)N1CCOCC1c1cccn1C (stereo not drawn) [7-A09, 2-chloro-1-[3-(1-methyl-1H-pyrrol-2-yl)morpholin-4-yl]propan-1-one] | 81.9466
CCc1ccccc1NC(=O)CN(C)C(=O)CCl [6-L06, 2-chloro-N-{[(2-ethylphenyl)carbamoyl]methyl}-N-methylacetamide] | 98.3415
CC(NC(=O)CCl)C(=O)N1c2ccccc2CC1C (stereo not drawn) [7-N16, 2-chloro-N-[1-(2-methyl-2,3-dihydro-1H-indol-1-yl)-1-oxopropan-2-yl]acetamide] | 94.5055
N#CC(=Cc1ccncc1)C(=O)Nc1ccccc1Cl [8-N17, N-(2-chlorophenyl)-2-cyano-3-(pyridin-4-yl)prop-2-enamide] | 114.855
C=CC(=O)N1CC(n2nc(C)cc2C)C1 [3-B04, 1-[3-(3,5-dimethyl-1H-pyrazol-1-yl)azetidin-1-yl]prop-2-en-1-one] | 100.305
CC(Cl)C(=O)N1CCN(C(=O)c2ccc3ccccc3c2)CC1 (stereo not drawn) [7-E07, 2-chloro-1-[4-(naphthalene-2-carbonyl)piperazin-1-yl]propan-1-one] | 102.983
C=CC(=O)Nc1ccc(N2CCN(CC)CC2)cc1 [1-D12, N-[4-(4-ethylpiperazin-1-yl)phenyl]prop-2-enamide] | 102.33
Cc1cc(C(=O)CCl)co1 [10-A13, 2-chloro-1-(5-methylfuran-3-yl)ethan-1-one] | 133.438
COc1ccc(C=C(C#N)C(=O)Nc2nccs2)cc1O [8-G19, 2-cyano-3-(3-hydroxy-4-methoxyphenyl)-N-(1,3-thiazol-2-yl)prop-2-enamide] | 82.3237
C=CC(=O)NCC1(C)CCS(=O)(=O)CC1 [1-G16, N-[(4-methyl-1,1-dioxo-1lambda6-thian-4-yl)methyl]prop-2-enamide] | 99.5165
O=C(CCl)Nc1nc(-c2cc(F)ccc2F)cs1 [4-L22, 2-chloro-N-[4-(2,5-difluorophenyl)-1,3-thiazol-2-yl]acetamide] | 123.869
C=CC(=O)NCC1CCCC1N1CCCS1(=O)=O (stereo not drawn) [3-L13, N-{[2-(1,1-dioxo-1lambda6,2-thiazolidin-2-yl)cyclopentyl]methyl}prop-2-enamide] | 114.933
C=CC(=O)NC(C)c1cc2cnccc2o1 (stereo not drawn) [1-B08, N-(1-{furo[3,2-c]pyridin-2-yl}ethyl)prop-2-enamide] | 107.604
CC(NC(=O)CCl)c1cn(C)c2cc(Cl)ccc12 (stereo not drawn) [5-E11, 2-chloro-N-[1-(6-chloro-1-methyl-1H-indol-3-yl)ethyl]acetamide] | 99.4536
C=CC(=O)Nc1ccc2nc(O)n(C3CC3)c2c1 [2-K16, N-(1-cyclopropyl-2-hydroxy-1H-1,3-benzodiazol-6-yl)prop-2-enamide] | 114.534
CC(Cl)C(=O)N(C)C1CCS(=O)(=O)CC1 (stereo not drawn) [6-J21, 2-chloro-N-(1,1-dioxo-1lambda6-thian-4-yl)-N-methylpropanamide] | 102.098
C=CC(=O)N1CCn2c(nnc2C(F)(F)F)C1 [1-D18, 1-[3-(trifluoromethyl)-5H,6H,7H,8H-[1,2,4]triazolo[4,3-a]pyrazin-7-yl]prop-2-en-1-one] | 102.33
CNC(=O)C(C#N)=Cc1cccc(C)c1C [9-D14, 2-cyano-3-(2,3-dimethylphenyl)-N-methylprop-2-enamide] | 91.0861
C=CC(=O)NCc1ccc(OC)cc1 [1-K10, N-[(4-methoxyphenyl)methyl]prop-2-enamide] | 113.934
CC(Cl)C(=O)N1CCC(C(=O)c2cccs2)CC1 (stereo not drawn) [7-L13, 2-chloro-1-[4-(thiophene-2-carbonyl)piperidin-1-yl]propan-1-one] | 103.925

SMILES | % of control remaining [%]
N#CC(=Cc1c[nH]nc1-c1ccccc1F)C(=O)Nc1ccccc1F [8-H06, 2-cyano-N-(2-fluorophenyl)-3-[3-(2-fluorophenyl)-1H-pyrazol-4-yl]prop-2-enamide] | 91.9502
CC(Cl)C(=O)NCCc1cnc2c(Cl)cnn2c1 (stereo not drawn) [7-M18, 2-chloro-N-(2-{3-chloropyrazolo[1,5-a]pyrimidin-6-yl}ethyl)propanamide] | 105.495
O=C(CCl)NC(c1ccccc1)c1ccccc1 [6-M12, 2-chloro-N-(diphenylmethyl)acetamide] | 103.463
C=CC(=O)N1Cc2c(C(=O)O)cnn2CC1C (stereo not drawn) [3-N18, 6-methyl-5-(prop-2-enoyl)-4H,5H,6H,7H-pyrazolo[1,5-a]pyrazine-3-carboxylic acid] | 98.9116
C=CC(=O)NC(C)(C)c1ccc(S(N)(=O)=O)cc1F [2-P17, N-[2-(2-fluoro-4-sulfamoylphenyl)propan-2-yl]prop-2-enamide] | 90.5135
CCCn1c(C)cc(C=C(C#N)C(=O)Nc2cccc(F)c2)c1C [8-L19, 2-cyano-3-(2,5-dimethyl-1-propyl-1H-pyrrol-3-yl)-N-(3-fluorophenyl)prop-2-enamide] | 95.6017
CN1c2ccccc2C(NC(=O)CCl)CS1(=O)=O (stereo not drawn) [7-L04, 2-chloro-N-(1-methyl-2,2-dioxo-3,4-dihydro-1H-2lambda6,1-benzothiazin-4-yl)acetamide] | 102.983
N#CC(=Cc1cccc(Cl)c1Cl)C(=O)NCc1ccccc1 [8-L04, N-benzyl-2-cyano-3-(2,3-dichlorophenyl)prop-2-enamide] | -0.332
Cc1cc(C(=O)C(C)Cl)c(C)n1-c1ccc(OC(F)F)cc1 (stereo not drawn) [10-E10, 2-chloro-1-{1-[4-(difluoromethoxy)phenyl]-2,5-dimethyl-1H-pyrrol-3-yl}propan-1-one] | 125.938
Cl.O=C(CCl)NC1CCN(Cc2ccccc2)CC1 [5-E19, N-(1-benzylpiperidin-4-yl)-2-chloroacetamide hydrochloride] | 109.654
CC(Cl)C(=O)NCc1cccc(N2C(=O)NC3(CCCC3)C2=O)c1 (stereo not drawn) [7-O18, 2-chloro-N-[(3-{2,4-dioxo-1,3-diazaspiro[4.4]nonan-3-yl}phenyl)methyl]propanamide] | 103.611
CC(=O)Nc1ccc(C=C(C#N)C(=O)Nc2ccccc2Cl)cc1 [8-M11, N-(2-chlorophenyl)-2-cyano-3-(4-acetamidophenyl)prop-2-enamide] | 90.2905
C=CC(=O)NCc1ccc(C(=O)N2CCC[C@@H]2C(N)=O)cc1 [3-L22, (2R)-1-{4-[(prop-2-enamido)methyl]benzoyl}pyrrolidine-2-carboxamide] | 98.2151
C=CC(=O)NCc1cc(C2CC2)nn1C [1-L10, N-[(3-cyclopropyl-1-methyl-1H-pyrazol-5-yl)methyl]prop-2-enamide] | 79.8242
CC(Cl)C(=O)NC(C)c1nnc(-c2cccc(F)c2)s1 (stereo not drawn) [5-N15, 2-chloro-N-{1-[5-(3-fluorophenyl)-1,3,4-thiadiazol-2-yl]ethyl}propanamide] | 108.561
CC(Cl)C(=O)NCCc1cccs1 (stereo not drawn) [4-D14, 2-chloro-N-[2-(thiophen-2-yl)ethyl]propanamide] | 107.099
CCN1C(=O)CSC1=C(C#N)C(N)=O [8-M09, 2-cyano-2-(3-ethyl-4-oxo-1,3-thiazolidin-2-ylidene)acetamide] | 100.581
COc1ccc2ccccc2c1-c1cc(CNC(=O)C(C)Cl)on1 (stereo not drawn) [7-E08, 2-chloro-N-{[3-(2-methoxynaphthalen-1-yl)-1,2-oxazol-5-yl]methyl}propanamide] | 104.867
CC(Cl)C(=O)NCCc1ccccc1 (stereo not drawn) [4-K14, 2-chloro-N-(2-phenylethyl)propanamide] | 112.816
C=CC(=O)N1CCN(c2nc3ccccc3o2)CC1 [1-K05, 1-[4-(1,3-benzoxazol-2-yl)piperazin-1-yl]prop-2-en-1-one] | 107.956
C=CC(=O)N1CCC(C(=O)N(CC)Cc2occc2C)CC1 [2-L08, N-ethyl-N-[(3-methylfuran-2-yl)methyl]-1-(prop-2-enoyl)piperidine-4-carboxamide] | 126.719
C=CC(=O)NCCn1nnc2ccccc21 [2-N11, N-[2-(1H-1,2,3-benzotriazol-1-yl)ethyl]prop-2-enamide] | 114.186
